{
  "source": "PubChem BioAssay AID504332",
  "about": "(National Center for Advancing Translational Sciences (NCATS), 2011)",
  "note": "Where “and” joins values, the source holds several entries; their conditions need not be identical. Equal values may be shown once. Among all 350,000 compounds or so, about 31,000 (8.9%) were called active. The shares of active, inactive and inconclusive entries below differ from those in the screen. The call rests on the fitted dose curve; in most records, active means well fitted inhibition curve with a large enough effect; inconclusive means small, poorly fitted or top-dose-only effect; inactive means no such curve, though single readings can be large or run the other way. A potency beside an inconclusive call is a rough fit, not a confirmed value. More than one record can exist for a structure, and the calls need not agree.",
  "data": [
    {"biological_target": "Histone-lysine N-methyltransferase EHMT2 (Homo sapiens) (UniProt Q96KQ7)", "sequence (Q96KQ7 whole entry, looked up)": "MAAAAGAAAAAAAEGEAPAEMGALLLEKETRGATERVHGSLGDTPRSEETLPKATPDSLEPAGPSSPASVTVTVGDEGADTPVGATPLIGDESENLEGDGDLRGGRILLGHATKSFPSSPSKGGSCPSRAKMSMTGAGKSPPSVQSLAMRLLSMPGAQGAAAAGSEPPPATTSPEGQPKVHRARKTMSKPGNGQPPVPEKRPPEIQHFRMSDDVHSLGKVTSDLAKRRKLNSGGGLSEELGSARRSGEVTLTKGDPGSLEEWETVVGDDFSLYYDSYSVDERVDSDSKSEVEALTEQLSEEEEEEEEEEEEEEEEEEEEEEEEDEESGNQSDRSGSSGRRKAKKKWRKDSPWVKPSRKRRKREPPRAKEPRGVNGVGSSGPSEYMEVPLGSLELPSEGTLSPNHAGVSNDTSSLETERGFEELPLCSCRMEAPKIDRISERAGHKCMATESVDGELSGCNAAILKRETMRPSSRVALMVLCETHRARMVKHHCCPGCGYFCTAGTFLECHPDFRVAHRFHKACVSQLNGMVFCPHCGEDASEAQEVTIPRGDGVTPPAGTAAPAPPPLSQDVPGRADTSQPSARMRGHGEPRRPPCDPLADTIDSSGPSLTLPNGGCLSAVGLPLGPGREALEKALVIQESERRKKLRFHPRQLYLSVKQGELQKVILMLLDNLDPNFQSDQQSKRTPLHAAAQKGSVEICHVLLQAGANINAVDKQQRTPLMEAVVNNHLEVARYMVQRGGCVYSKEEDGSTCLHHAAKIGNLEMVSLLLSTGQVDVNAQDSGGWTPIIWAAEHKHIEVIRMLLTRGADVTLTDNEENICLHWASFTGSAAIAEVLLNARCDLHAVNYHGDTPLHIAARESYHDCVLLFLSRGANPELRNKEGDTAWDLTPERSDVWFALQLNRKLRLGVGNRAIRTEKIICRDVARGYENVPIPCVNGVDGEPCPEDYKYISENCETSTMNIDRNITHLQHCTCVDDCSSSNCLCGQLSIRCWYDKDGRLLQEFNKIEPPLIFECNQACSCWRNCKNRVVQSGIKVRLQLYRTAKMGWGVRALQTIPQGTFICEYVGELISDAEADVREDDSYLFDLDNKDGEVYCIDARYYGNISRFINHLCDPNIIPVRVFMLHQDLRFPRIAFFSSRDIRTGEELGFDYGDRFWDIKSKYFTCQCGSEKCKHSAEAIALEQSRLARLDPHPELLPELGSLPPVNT", "test": "qHTS Assay for Inhibitors of Histone Lysine Methyltransferase G9a; further: nearly all actives have a fitted effect of over 75% in size; further: potency means the concentration at half of the fitted maximal effect; tags describe the fitted curve by direction and shape; on activity, negative = inhibition: on the % scale 0 is the no-effect control and ±100 the full control effect", "settings": "G9a H3K9 monomethylation, AlphaScreen, 2 h; activity, negative = inhibition: at 59 µM (top of the series) unless noted", "procedure,_shortened": "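Enzyme 20 nM + cpd, 15 min RT; add b-H3K9 pep 500 nM / SAM 20 uM; 2 h RT; anti-H3K9me1 Ab 0.5 ug/mL + SA donor / anti-rabbit acceptor beads 20 ug/mL each, 10 min; AlphaScreen read.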", "values": [
      {"compound": "O=C(Nc1nccs1)C1CCCN(S(=O)(=O)c2cccnc2)C1", "note": "(centres undefined)", "activity, negative = inhibition": "inactive: -11.2% [at 102 µM]"},
      {"compound": "O=C(CSc1nnc(-c2ccc(S(=O)(=O)N3CCCC3)cc2)o1)NCc1ccco1", "Potency": "inconclusive: 89.1 µM [inhibitor, single point]"},
      {"compound": "O=C(Cn1cnc([N+](=O)[O-])c1)Nc1cc(Oc2ccc(Cl)cc2Cl)cc([N+](=O)[O-])c1", "Potency": "inconclusive: 35.5 µM [inhibitor, single point]"},
      {"compound": "O=C(Nc1c(C(=O)O)[nH]c2ccccc12)c1cccc(C(F)(F)F)c1", "Potency": "inconclusive: 31.6 µM [inhibitor, partial curve, poor fit]"},
      {"compound": "O=c1[nH]c(N2CCOCC2)nc2ccccc12", "activity, negative = inhibition": "inactive: 15.6% [at 102 µM]"},
      {"compound": "COC(=O)c1ccccc1NC(=O)C1CCCN(C(=O)c2cnn(-c3ccc(F)cc3)c2-n2cccc2)C1", "note": "(centres undefined)", "Potency": "inconclusive: 3.98 µM [inhibitor, partial curve, poor fit]"},
      {"compound": "CCOc1ccc(S(=O)(=O)NCCC(=O)NCCOc2ccccc2)cc1", "activity, negative = inhibition": "inactive: 17.6% [at 0.501 µM]"},
      {"compound": "O=C(Nc1cccc(-c2nc3ccccc3s2)c1)c1cc(=O)c2ccccc2o1", "Potency": "inconclusive: 89.1 µM [inhibitor, single point]"},
      {"compound": "CCCCc1n[nH]c2c1/C(=N/O)CC(C)(C)C2", "Potency": "inconclusive: 39.8 µM [inhibitor, partial curve, poor fit]"},
      {"compound": "O=C(NCc1ccccc1)N1CCN(c2ccc(Cl)c(Cl)c2)CC1", "activity, negative = inhibition": "inactive: 17%"},
      {"compound": "CCN1C(=O)N/C(=C/c2ccc(C)o2)C1=O", "Potency": "inconclusive: 39.8 µM [inhibitor, single point]"},
      {"compound": "COc1ccc(C2/C=C\\CN(S(=O)(=O)c3ccc(C)cc3)[C@H](Cc3ccccc3)C(=O)N2Cc2ccc(F)cc2)cc1", "note": "(some centres undefined)", "Potency": "inconclusive: 3.16 µM [inhibitor, partial curve, poor fit]"},
      {"compound": "CCOC(=O)/C=C(\\C)N1N=C(c2ccccc2)CC1c1ccccc1", "note": "(centres undefined)", "Potency": "inconclusive: 39.8 µM [inhibitor, partial curve, poor fit]"},
      {"compound": "CCn1c(C)nc2cc(C(=O)NNC(=S)Nc3ccc(Cl)cc3)ccc21", "activity, negative = inhibition": "inconclusive: -84.6% [inhibitor]"},
      {"compound": "CC1=NN(c2cccc(C(=O)O)c2)C(=O)/C1=C\\C=C/c1ccccc1", "Potency": "active: 39.8 µM"},
      {"compound": "Cc1ccc(S(=O)(=O)NNC(=O)Nc2ccccc2F)c(C)c1", "Potency": "active: 50.1 µM"},
      {"compound": "Cc1cc(C)n(C(C[N+](=O)[O-])c2ccc(Cl)cc2)n1", "note": "(centres undefined)", "Potency": "inconclusive: 2.82 µM [inhibitor, partial curve, poor fit]"},
      {"compound": "CCOCc1c(C(=O)Nc2cc(OCC)c(N3CCOCC3)cc2OCC)oc2ccccc12", "Potency": "inconclusive: 7.08 µM [inhibitor, partial curve, poor fit]"},
      {"compound": "c1ccc(SCCc2ccncc2)cc1", "activity, negative = inhibition": "inactive: -20.4% [at 12.7 µM]"},
      {"compound": "CCc1ccc(C(=O)NC(=S)Nc2ccc(N3CCOCC3)cc2)cc1", "Potency": "active: 6.31 µM"},
      {"compound": "Cc1nc(NC(=O)c2ccco2)sc1-c1csc(Nc2ccc(Cl)cc2Cl)n1", "Potency": "inconclusive: 89.1 µM [inhibitor, single point]"},
      {"compound": "COc1cc(/C=N/NC(N)=O)cc([N+](=O)[O-])c1O", "activity, negative = inhibition": "inconclusive: -64% [inhibitor]"},
      {"compound": "Cc1ccc(-n2ncc3c(N4CCN(Cc5ccccc5)CC4)ncnc32)cc1C", "activity, negative = inhibition": "inactive: 6.99%"},
      {"compound": "CCCCn1c(N)c(N(CCC(C)C)C(=O)c2ccc(COc3ccccc3)o2)c(=O)[nH]c1=O", "Potency": "inconclusive: 89.1 µM [inhibitor, partial curve, poor fit]"},
      {"compound": "CC(C)CCN(C(=O)c1cc(=O)[nH]c2ccccc12)c1c(N)n(Cc2ccccc2)c(=O)[nH]c1=O", "Potency": "inconclusive: 14.1 µM [inhibitor, single point]"},
      {"compound": "CCCn1c(SCCc2ccccc2)nc2c1c(=O)[nH]c(=O)n2C", "Potency": "inconclusive: 56.2 µM [inhibitor, partial curve, poor fit]"},
      {"compound": "CCNC(=S)N/N=C/c1ccc(C(=O)O)cc1", "Potency": "inconclusive: 79.4 µM [inhibitor, single point]"},
      {"compound": "O=C(N/N=C/c1cc([N+](=O)[O-])ccc1O)C1C2CCCCC21", "note": "(centres undefined)", "Potency": "inconclusive: 70.8 µM [inhibitor, partial curve]"},
      {"compound": "N#C/C(=C\\c1ccc(-c2ccc(Br)cc2)o1)C(=O)Nc1ccccc1O", "activity, negative = inhibition": "inactive: -23.6%"},
      {"compound": "CC(Cc1cccc(C(F)(F)F)c1)NCCOC(=O)c1ccccc1", "note": "(centres undefined)", "Potency": "active: 12.6 µM", "activity, negative = inhibition": "inactive: -35.2% [at 2.33 µM] and inactive: 7.67% [at 12.7 µM]"},
      {"compound": "Cc1ccc(NC(=O)CSc2nnc(N)s2)cc1S(=O)(=O)N1CCCCC1", "Potency": "inconclusive: 79.4 µM [inhibitor, single point]"},
      {"compound": "CCN(CC)c1ccc(/C=c2\\sc3nnc(-c4ccccc4Cl)n3c2=O)cc1", "Potency": "inconclusive: 12.6 µM [inhibitor, partial curve, poor fit]"},
      {"compound": "COC(=O)c1cc(C(=O)c2cc(Cl)ccc2O)coc1=N", "Potency": "inconclusive: 1.41 µM [inhibitor, full curve, poor fit]"},
      {"compound": "CCCn1c(=N)c(C(=O)NCc2ccccc2)cc2c(=O)n3cccc(C)c3nc21", "activity, negative = inhibition": "inactive: 0.45%"},
      {"compound": "COC(=O)CSc1nc2cc3c(cc2cc1C)OCO3", "Potency": "inconclusive: 39.8 µM [inhibitor, partial curve]"},
      {"compound": "COCCNC(=S)NCc1cccs1", "Potency": "active: 28.2 µM"},
      {"compound": "CCCCN(C(=O)C1CC(=O)N(c2ccc3c(c2)OCCO3)C1)c1c(N)n(CCCC)c(=O)[nH]c1=O", "note": "(centres undefined)", "Potency": "inconclusive: 31.6 µM [inhibitor, partial curve]"},
      {"compound": "Cc1cc(N2CCOCC2)nc2ccc(NC(=S)NCc3ccc4c(c3)OCO4)cc12", "Potency": "inconclusive: 56.2 µM [inhibitor, partial curve, poor fit]"},
      {"compound": "Cc1cc(C(=O)COC(=O)c2n[nH]c(=O)c3ccccc23)c(C)n1C", "Potency": "inconclusive: 11.2 µM [inhibitor, single point]"},
      {"compound": "CC1=Nc2ccc(C)cc2/C1=C/c1c(N)n2c(S(=O)(=O)C(C)C)nsc2nc1=O", "Potency": "active: 50.1 µM"},
      {"compound": "CC(C)C(=O)N1CCN(c2ccc([N+](=O)[O-])c(NC(C)c3ccccc3)c2)CC1", "note": "(centres undefined)", "Potency": "inconclusive: 39.8 µM [inhibitor, single point]"},
      {"compound": "CCCC(=O)NC(C)c1nc2ccccc2[nH]1", "note": "(centres undefined)", "activity, negative = inhibition": "inactive: -6.15%"},
      {"compound": "O=C(Nc1ccc(N2CCCCC2)cc1)c1ccc2c(c1)OCCO2", "Potency": "active: 3.55 µM"}
    ]}
  ]
}
